Experimental data taken from the supplement of paper PMC8728848.
This is one part of the list.

What was measured:
Assay in all cases: glycan array binding signal (z-score within array); higher = stronger binding
Conditions in all cases: glycan notation: IUPAC condensed, linker removed
Gal(a1-3)GalNAc = molecular target: Gal(a1-3)GalNAc
How it was run: (§1)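 The binding signal is a Z-score computed within each array and averaged over linkers. Arrays of the same protein sequence at different concentrations or buffers were also averaged together. Data originate from 3228 arrays in the Consortium for Functional Glycomics database, kept only where the protein sequence was available.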

[1] = molecular target: Gal(a1-3)[Gal(a1-4)]Gal(b1-4)GlcNAc
How it was run: as §1

[2] = molecular target: Gal(a1-4)Gal(b1-3)GlcNAc(b1-2)Man(a1-3)[Gal(a1-4)Gal(b1-3)GlcNAc(b1-2)Man(a1-6)]Man(b1-4)GlcNAc(b1-4)GlcNAc
How it was run: as §1

Gal(a1-4)Gal(b1-4)Glc = molecular target: Gal(a1-4)Gal(b1-4)Glc
How it was run: as §1

Gal(a1-4)Gal(b1-4)GlcNAc = molecular target: Gal(a1-4)Gal(b1-4)GlcNAc
How it was run: as §1

[3] = molecular target: Gal(a1-4)Gal(b1-4)GlcNAc(b1-2)Man(a1-3)[Gal(a1-4)Gal(b1-4)GlcNAc(b1-2)Man(a1-6)]Man(b1-4)GlcNAc(b1-4)GlcNAc
How it was run: as §1

[4] = molecular target: Gal(a1-4)Gal(b1-4)GlcNAc(b1-3)Gal(b1-4)Glc
How it was run: as §1

Gal(a1-4)GlcNAc = molecular target: Gal(a1-4)GlcNAc
How it was run: as §1

Gal(a1-6)Glc = molecular target: Gal(a1-6)Glc
How it was run: as §1

Gal(b1-2)Gal = molecular target: Gal(b1-2)Gal
How it was run: as §1

Gal(b1-3)Gal = molecular target: Gal(b1-3)Gal
How it was run: as §1

Gal(b1-3)Gal(b1-4)GlcNAc = molecular target: Gal(b1-3)Gal(b1-4)GlcNAc
How it was run: as §1

Gal(b1-3)GalNAc = molecular target: Gal(b1-3)GalNAc
How it was run: as §1

[5] = molecular target: Gal(b1-3)GalNAc(a1-3)[Fuc(a1-2)]Gal(b1-4)Glc
How it was run: as §1

[6] = molecular target: Gal(b1-3)GalNAc(a1-3)[Fuc(a1-2)]Gal(b1-4)GlcNAc
How it was run: as §1

Gal(b1-3)GalNAc(b1-3)Gal = molecular target: Gal(b1-3)GalNAc(b1-3)Gal
How it was run: as §1

[7] = molecular target: Gal(b1-3)GalNAc(b1-3)Gal(a1-4)Gal(b1-4)Glc
How it was run: as §1

[8] = molecular target: Gal(b1-3)GalNAc(b1-4)Gal(b1-4)Glc
How it was run: as §1

[9] = molecular target: Gal(b1-3)GalNAc(b1-4)[Neu5Ac(a2-3)]Gal(b1-4)Glc
How it was run: as §1

Gal(b1-3)GlcNAc = molecular target: Gal(b1-3)GlcNAc
How it was run: as §1

[10] = molecular target: Gal(b1-3)GlcNAc(a1-3)Gal(b1-4)GlcNAc
How it was run: as §1

[11] = molecular target: Gal(b1-3)GlcNAc(a1-6)Gal(b1-4)GlcNAc
How it was run: as §1

Gal(b1-3)GlcNAc(b1-2)Man = molecular target: Gal(b1-3)GlcNAc(b1-2)Man
How it was run: as §1

[12] = molecular target: Gal(b1-3)GlcNAc(b1-2)Man(a1-3)[Gal(b1-3)GlcNAc(b1-2)Man(a1-6)]Man(b1-4)GlcNAc(b1-4)GlcNAc
How it was run: as §1

[13] = molecular target: Gal(b1-3)GlcNAc(b1-2)Man(a1-3)[Gal(b1-3)GlcNAc(b1-2)Man(a1-6)]Man(b1-4)GlcNAc(b1-4)[Fuc(a1-6)]GlcNAc
How it was run: as §1

[14] = molecular target: Gal(b1-3)GlcNAc(b1-2)Man(a1-3)[GlcNAc(b1-4)][Gal(b1-3)GlcNAc(b1-2)Man(a1-6)]Man(b1-4)GlcNAc(b1-4)GlcNAc
How it was run: as §1

[15] = molecular target: Gal(b1-3)GlcNAc(b1-2)[Gal(b1-3)GlcNAc(b1-6)]Man(a1-6)[Gal(b1-3)GlcNAc(b1-2)Man(a1-3)]Man(b1-4)GlcNAc(b1-4)GlcNAc
How it was run: as §1

[16] = molecular target: Gal(b1-3)GlcNAc(b1-3)Gal(b1-3)GlcNAc
How it was run: as §1

[17] = molecular target: Gal(b1-3)GlcNAc(b1-3)Gal(b1-4)Glc
How it was run: as §1

[18] = molecular target: Gal(b1-3)GlcNAc(b1-3)Gal(b1-4)GlcNAc
How it was run: as §1

[19] = molecular target: Gal(b1-3)GlcNAc(b1-3)Gal(b1-4)GlcNAc(b1-2)Man(a1-3)[Gal(b1-3)GlcNAc(b1-3)Gal(b1-4)GlcNAc(b1-2)Man(a1-6)]Man(b1-4)GlcNAc(b1-4)GlcNAc
How it was run: as §1

[20] = molecular target: Gal(b1-3)GlcNAc(b1-3)Gal(b1-4)GlcNAc(b1-2)[Gal(b1-3)GlcNAc(b1-3)Gal(b1-4)GlcNAc(b1-6)]Man(a1-6)[Gal(b1-3)GlcNAc(b1-3)Gal(b1-4)GlcNAc(b1-2)Man(a1-3)]Man(b1-4)GlcNAc(b1-4)[Fuc(a1-6)]GlcNAc
How it was run: as §1

[21] = molecular target: Gal(b1-3)GlcNAc(b1-3)Gal(b1-4)GlcNAc(b1-3)Gal(b1-4)GlcNAc(b1-2)[Gal(b1-3)GlcNAc(b1-3)Gal(b1-4)GlcNAc(b1-3)Gal(b1-4)GlcNAc(b1-6)]Man(a1-6)[Gal(b1-3)GlcNAc(b1-3)Gal(b1-4)GlcNAc(b1-3)Gal(b1-4)GlcNAc(b1-2)Man(a1-3)]Man(b1-4)GlcNAc(b1-4)[Fuc(a1-6)]GlcNAc
How it was run: as §1

[22] = molecular target: Gal(b1-3)GlcNAc(b1-3)Gal(b1-4)GlcNAc(b1-6)[Gal(b1-3)GlcNAc(b1-3)]Gal(b1-4)Glc
How it was run: as §1

[23] = molecular target: Gal(b1-3)GlcNAc(b1-3)Gal(b1-4)[Fuc(a1-3)]GlcNAc
How it was run: as §1

[24] = molecular target: Gal(b1-3)GlcNAc(b1-3)Gal(b1-4)[Fuc(a1-3)]GlcNAc(b1-6)[Gal(b1-3)GlcNAc(b1-3)]Gal(b1-4)Glc
How it was run: as §1

[25] = molecular target: Gal(b1-3)GlcNAc(b1-3)GalNAc
How it was run: as §1

[26] = molecular target: Gal(b1-3)GlcNAc(b1-6)Gal(b1-4)GlcNAc
How it was run: as §1

B1: AT1G73650(15) (Arabidopsis thaliana), F4HRY1 (protein)
chain: MGTVLDSHFLALTAIVTVIYQFIFFVITALFKFDQVTDFAGSTNFVILAVLTLVLKASWHFRQIVLTLLVVVWGLRLGIFLLMETRILQWGEDRRFDEQRGNIVRLIIFWTLQAVWVWTVSLPLTLVNASDGGGSLKPADVIGWTMETWVFGFLIEAAADQQKLSFKNSPENRGKWCDVGVWKYSRHPNYFGEMETLLWWGIFVAASPVLEGAEYLVIFGPLFLTLLLLFVSGIPLLEASADKKHGNSGAYRSYKKTTSPLILFPRGVYGNLPGWFKTVFLFEFPFYSRNLPQEGRLQNSKEKEVKDD
glycan array binding signal (z-score) (Gal(a1-3)GalNAc): 0.849 | glycan array binding signal (z-score) [1]: 3.43 | glycan array binding signal (z-score) [2]: -0.28 | glycan array binding signal (z-score) (Gal(a1-4)Gal(b1-4)Glc): 0.464 | glycan array binding signal (z-score) (Gal(a1-4)Gal(b1-4)GlcNAc): 0.585 | glycan array binding signal (z-score) [3]: -0.592 | glycan array binding signal (z-score) [4]: -0.482 | glycan array binding signal (z-score) (Gal(a1-4)GlcNAc): -0.576 | glycan array binding signal (z-score) (Gal(a1-6)Glc): -0.341 | glycan array binding signal (z-score) (Gal(b1-2)Gal): -0.609 | glycan array binding signal (z-score) (Gal(b1-3)Gal): -0.662 | glycan array binding signal (z-score) (Gal(b1-3)Gal(b1-4)GlcNAc): 0.597 | glycan array binding signal (z-score) (Gal(b1-3)GalNAc): 0.159 | glycan array binding signal (z-score) [5]: -0.729 | glycan array binding signal (z-score) [6]: 0.517 | glycan array binding signal (z-score) (Gal(b1-3)GalNAc(b1-3)Gal): -0.616 | glycan array binding signal (z-score) [7]: 0.351 | glycan array binding signal (z-score) [8]: 3.21 | glycan array binding signal (z-score) [9]: 0.118 | glycan array binding signal (z-score) (Gal(b1-3)GlcNAc): -0.32 | glycan array binding signal (z-score) [10]: -0.442 | glycan array binding signal (z-score) [11]: 0.337 | glycan array binding signal (z-score) (Gal(b1-3)GlcNAc(b1-2)Man): -0.312 | glycan array binding signal (z-score) [12]: 0.342 | glycan array binding signal (z-score) [13]: -0.568 | glycan array binding signal (z-score) [14]: -0.213 | glycan array binding signal (z-score) [15]: 0.083 | glycan array binding signal (z-score) [16]: -0.598 | glycan array binding signal (z-score) [17]: 2.3 | glycan array binding signal (z-score) [18]: -0.488 | glycan array binding signal (z-score) [19]: -0.345 | glycan array binding signal (z-score) [20]: -0.873 | glycan array binding signal (z-score) [21]: -0.099 | glycan array binding signal (z-score) [22]: -0.519 | glycan array binding signal (z-score) [23]: 0.464 | glycan array binding signal (z-score) [24]: -0.364 | glycan array binding signal (z-score) [25]: 0.155 | glycan array binding signal (z-score) [26]: -0.611
